Test results: PubChem BioAssay (NCATS)
This list was built around the results that the source calls inconclusive (neither active nor inactive); the mix of calls is not that of the screen. No potency is given beside an inconclusive call; the fits are too rough. Activity calls are given as the source filed them. Calls come from the whole dose curve; as a rule, active = well fitted curve in the direction sought with a large enough effect; inconclusive = small, poorly fitted or top-dose-only effect, or another doubt; inactive = no such curve, though single readings can be large; an effect the other way counts as inactive or inconclusive.

How the values were obtained:
[1] = qHTS of pediatric cancer cell lines to identify multiple opportunities for drug repurposing: Primary screen for Rh30 cells (AID 1347107); note: nearly all actives have a fitted effect of over 75% in size
In short: (§1)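 Cells (500-1,000/well) rested 5 h, then received compounds for 48 h; metabolically active cells were measured by CellTiter-Glo luminescence. Final concentrations spanned up to 46 µM (MIPE, 11-point) or 0.59 nM-46 µM (NPC, 8-point) in primary screens, 11-point in follow-ups.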

[2] = qHTS of pediatric cancer cell lines to identify multiple opportunities for drug repurposing: Primary screen for Rh41 cells (AID 1347108); note: nearly all actives have a fitted effect of over 70% in size
In short: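 Phenotypic viability qHTS, 48 h compound exposure, CellTiter-Glo luminescence read-out; multi-concentration dosing so that potency and efficacy derive directly from the primary screen's curves.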

[3] = qHTS of pediatric cancer cell lines to identify multiple opportunities for drug repurposing: Confirmatory screen for NB1643 cells (AID 1347109); conditions: NB1643 neuroblastoma cell viability; series mostly up to 45.9 µM; note: nearly all actives have a fitted effect of over 45% in size
In short: as §1

[4] = qHTS of pediatric cancer cell lines to identify multiple opportunities for drug repurposing: Confirmatory screen for SK-N-MC cells (AID 1347111);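 note: cells exposed to compound for 48 h before the readout; nearly all actives have a fitted effect of over 70% in size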
In short: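 Seed 500-1,000 cells/well; rest 5 h at 37 degrees C. Pin-transfer compounds, 11-point titration. Incubate 48 h. Add CellTiter-Glo, 15 min RT, read luminescence.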

[5] = qHTS of pediatric cancer cell lines to identify multiple opportunities for drug repurposing: Confirmatory screen for BT-12 cells (AID 1347112); note: nearly all actives have a fitted effect of over 55% in size
In short: as §1

[6] = qHTS of pediatric cancer cell lines to identify multiple opportunities for drug repurposing: Confirmatory screen for LAN-5 cells (AID 1347113); note: nearly all actives have a fitted effect of over 65% in size
In short: as §1

[7] = qHTS of pediatric cancer cell lines to identify multiple opportunities for drug repurposing: Confirmatory screen for SJ-GBM2 cells (AID 1347116); note: nearly all actives have a fitted effect of over 60% in size
In short: (§2)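 Viability measured as metabolically active cells via CellTiter-Glo luminescence following 48 hours of compound exposure, 11-point dilutions in confirmatory testing. 500-1,000 cells/well plated 5 hours before dosing; controls were DMSO and 2.3 µM bortezomib.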

[8] = qHTS of pediatric cancer cell lines to identify multiple opportunities for drug repurposing: Confirmatory screen for DAOY cells (AID 1347114); note: nearly all actives have a fitted effect of over 65% in size
In short: as §2

[9] = qHTS of pediatric cancer cell lines to identify multiple opportunities for drug repurposing: Confirmatory screen for NB-EBc1 cells (AID 1347115);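 note: cells exposed to compound for 48 h before the viability read; nearly all actives have a fitted effect of over 45% in size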
In short: as §1

[10] = qHTS of pediatric cancer cell lines to identify multiple opportunities for drug repurposing: Confirmatory screen for A673 cells (AID 1347110);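 note: cells exposed to compound for 48 h before the viability read; nearly all actives have a fitted effect of over 65% in size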
In short: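 Concentration-response curves came straight from titrations: 11 points (0.78 nM to 46 µM) for MIPE and several concentrations (0.59 nM to 46 µM) for NPC in primary, 11 points in follow-up. Readout: ATP luminescence at 48 h.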
Potency is the fitted concentration of half-maximal effect; tags give direction and shape of the fitted curve.

CCc1cc(Nc2nccc(-c3c(-c4ccc(OC)c(C(=O)Nc5c(F)cccc5F)c4)nc4ccccn34)n2)c(OC)cc1N1CCC(N2CCN(S(C)(=O)=O)CC2)CC1
Potency [1]: inconclusive [cytotoxic, partial curve]
Potency [2]: inconclusive [cytotoxic, partial curve]

Cc1c(O)cccc1C(=O)N[C@@H](CSc1ccccc1)[C@H](O)CN1C[C@H]2CCCC[C@H]2C[C@H]1C(=O)NC(C)(C)C
Potency [1]: inactive
Potency [2]: inconclusive [cytotoxic, single point]

CC(C)(C)CC(C)(C)c1ccc(O)c(Cc2ccc(Cl)cc2Cl)c1
Potency [1]: inconclusive [cytotoxic, single point]
Potency [2]: inconclusive [cytotoxic, single point]

CC(C)(O)CC(=O)NCCn1ccc2ncnc(Nc3ccc(Oc4cccc(C(F)(F)F)c4)c(Cl)c3)c21
Potency [1]: inconclusive [cytotoxic, partial curve]
Potency [2]: inconclusive [cytotoxic, full curve]

Cc1c(-c2cccc3c(CCCOc4cccc5ccccc45)c(C(=O)O)n(Cc4cccnc4)c23)c(COc2ccc(N3CCN([S+](=O)([O-])N(C)C)CC3)cc2)nn1C
Potency [1]: inconclusive [cytotoxic, partial curve]
Potency [2]: inconclusive [cytotoxic, partial curve]

CCCCCCCCNC(C)C(O)c1ccc(SC(C)C)cc1 (stereo unspecified)
Potency [1]: inconclusive [cytotoxic, single point]
Potency [2]: inconclusive [cytotoxic, partial curve]

O=C(Nc1ccc(Cl)cc1)Nc1ccc(Cl)c(Cl)c1
Potency [1]: inconclusive [cytotoxic, single point]
Potency [2]: inconclusive [cytotoxic, single point]

NCCCC(O)(P(=O)(O)O)P(=O)(O)O
Potency [1]: inconclusive [cytotoxic, partial curve, poor fit]
Potency [2]: inactive

Cc1cnc(Nc2ccc(F)cc2Cl)nc1-c1c[nH]c(C(=O)N[C@H](CO)c2cccc(Cl)c2)c1
Potency [1]: inconclusive [cytotoxic, partial curve]
Potency [2]: active: 18.7 µM
Potency [3]: inconclusive [cytotoxic, partial curve, poor fit]
Potency [4]: inactive
Potency [5]: inconclusive [cytotoxic, partial curve, poor fit]
Potency [6]: inactive
Potency [7]: inconclusive [rising, full curve]

O=C(c1cc(Cc2n[nH]c(=O)c3ccccc23)ccc1F)N1CCN(C(=O)C2CC2)CC1
Potency [1]: inconclusive [cytotoxic, partial curve]
Potency [2]: inconclusive [cytotoxic, partial curve]
Potency [3]: inactive
Potency [4]: inconclusive [cytotoxic, full curve, poor fit]
Potency [6]: inconclusive [cytotoxic, single point]
Potency [8]: inconclusive [cytotoxic, single point]

C#C[C@]1(O)CC[C@@H]2[C@@H]3CCc4cc(O)ccc4[C@H]3CC[C@@]21C
Potency [1]: inconclusive [cytotoxic, partial curve]
Potency [2]: active: 23.5 µM

CC1(C)O[C@@H]2C[C@@H]3[C@H]4C[C@@H](F)C5=CC(=O)C=C[C@]5(C)[C@@]4(F)[C@@H](O)C[C@]3(C)[C@]2(C(=O)CO)O1
Potency [1]: inconclusive [cytotoxic, partial curve]
Potency [2]: inconclusive [cytotoxic, single point]
Potency [3]: inconclusive [cytotoxic, full curve]
Potency [6]: inconclusive [cytotoxic, full curve, poor fit]
Potency [8]: active: 0.737 µM
Potency [9]: active: 11.7 µM
Potency [7]: inconclusive [cytotoxic, full curve]

Oc1cc(-c2nc(-c3ccccc3)[nH]c2-c2ccncc2)ccc1Cl
Potency [1]: inconclusive [cytotoxic, partial curve]
Potency [2]: inconclusive [cytotoxic, partial curve]
Potency [3]: inconclusive [cytotoxic, partial curve]
Potency [10]: inconclusive [cytotoxic, single point]
Potency [8]: inconclusive [cytotoxic, single point]
Potency [9]: inconclusive [cytotoxic, full curve]

Oc1ccc(Cl)cc1Sc1cc(Cl)ccc1O
Potency [1]: inconclusive [cytotoxic, partial curve, poor fit]
Potency [2]: inconclusive [cytotoxic, partial curve]
